Assay results: US20240025997A1

Legend:
Experiment in all cases: cell-based or functional assay
[1] = molecular target: human ILT2 chimeric reporter receptor (ILT2 extracellular domain fused to PILRbeta transmembrane/intracellular domain) (human), Q8NHL6
[2] = molecular target: cyno ILT2 chimeric reporter receptor (cyno ILT2 extracellular domain fused to PILRbeta transmembrane/intracellular domain) (cynomolgus monkey)
[3] = molecular target: human ILT4 chimeric reporter receptor (ILT4 extracellular domain fused to PILRbeta transmembrane/intracellular domain) (human), Q8N423
Sequence of human ILT4 chimeric reporter receptor (ILT4 extracellular domain fused to PILRbeta transmembrane/intracellular domain) (human), Q8N423 (Q8N423 other isoform, or with tags, fused parts or gaps mutant limits assumed): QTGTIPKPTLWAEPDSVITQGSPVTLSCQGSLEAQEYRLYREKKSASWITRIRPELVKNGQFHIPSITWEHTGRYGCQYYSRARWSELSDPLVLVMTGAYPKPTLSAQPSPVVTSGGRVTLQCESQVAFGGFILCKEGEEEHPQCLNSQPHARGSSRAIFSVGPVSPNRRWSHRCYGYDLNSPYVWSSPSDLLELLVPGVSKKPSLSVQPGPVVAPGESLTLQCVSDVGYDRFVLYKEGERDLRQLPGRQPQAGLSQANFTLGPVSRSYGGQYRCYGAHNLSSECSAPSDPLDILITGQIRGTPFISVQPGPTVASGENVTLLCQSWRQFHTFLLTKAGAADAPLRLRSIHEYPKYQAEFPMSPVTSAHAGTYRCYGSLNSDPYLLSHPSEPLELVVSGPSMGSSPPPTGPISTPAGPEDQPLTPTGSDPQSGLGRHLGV

Sequence of human ILT2 chimeric reporter receptor (ILT2 extracellular domain fused to PILRbeta transmembrane/intracellular domain) (human), Q8NHL6 (Q8NHL6 24-461 limits assumed, change not shown): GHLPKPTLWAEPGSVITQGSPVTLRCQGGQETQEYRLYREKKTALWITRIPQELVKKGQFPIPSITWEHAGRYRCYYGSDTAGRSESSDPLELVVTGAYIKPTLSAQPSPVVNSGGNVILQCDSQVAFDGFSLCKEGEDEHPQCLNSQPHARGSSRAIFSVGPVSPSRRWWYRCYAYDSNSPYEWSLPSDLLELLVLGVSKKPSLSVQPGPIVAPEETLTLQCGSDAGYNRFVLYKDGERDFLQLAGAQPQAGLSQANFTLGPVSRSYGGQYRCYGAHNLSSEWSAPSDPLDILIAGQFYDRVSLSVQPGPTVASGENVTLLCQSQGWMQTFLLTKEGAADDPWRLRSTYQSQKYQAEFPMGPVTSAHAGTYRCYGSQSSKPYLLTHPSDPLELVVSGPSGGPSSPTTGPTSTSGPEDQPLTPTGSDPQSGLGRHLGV

- 721.221-HLA-G IC50 (nM); GFP-positive reporter cells [1]: 0.23 nM
- Raji Cell IC50 (nM); GFP-positive reporter cells [1]: 0.25 nM
- Raji Cell IC50 (nM); GFP-positive reporter cells [2]: 0.094 nM
- 721.221-HLA-G IC50 (nM); GFP-positive reporter cells [3]: 0.26 nM
- Raji Cell IC50 (nM); GFP-positive reporter cells [3]: 0.066 nM
B1: humanized anti-ILT2/ILT4 antibody Hz73D1.v1 (antibody, human IgG1, kappa)
heavy: QVQLVQSGAEVKKPGASVKVSCKASGYTFTDYYINWVRQAPGQGLEWMGNVNPNDGGTTYNQKFKGRVTMTTDTSTSTAYMELRSLRSDDTAVYYCARREIYFYGTIYYYAMDYWGQGTLVTVSSASTKGPSVFPLAPSSKSTSGGTAALGCLVKDYFPEPVTVSWNSGALTSGVHTFPAVLQSSGLYSLSSVVTVPSSSLGTQTYICNVNHKPSNTKVDKKV[human IgG1 Fc with changes omitted here]
light: DIQLTQSPSFLSASVGDRVTITCRASESVDYYGNSFMYWYQQKPGKAPKLLIYFASNLESGVPSRFSGSGSGTEFTLTISSLQPEDFATYYCQQNNEDPWTFGGGTKVEIKRTVAAPSVFIFPPSDEQLKSGTASVVCLLNNFYPREAKVQWKVDNALQSGNSQESVTEQDSKDSTYSLSSTLTLSKADYEKHKVYACEVTHQGLSSPVTKSFNRGEC
